The supplement of paper PMC7826260
This is one part of the list. Each Rep nickase domain was tested in vitro on the same pool of single strands (1 h at 37 °C, 3 µM enzyme); the outer parts of the 90-letter strands are left off. The score is log2 (uncut reads / reads without enzyme); strong cutting gives strongly negative numbers. There is no active / inactive call. The scaling is to total reads, so uncut sequences can rise above 0 when many others are cut.

These sequences were tested on T1, Rep nickase domain of Muscovy duck circovirus (assay: uncleaved DNA left, log2 of reads against the no-enzyme library (log2 ratio); higher = less cleavage (more negative = more Rep cleavage of the k-mer); sequences stand for … in CTCGTCCG…ACCGGAGA).
T1 sequence (protein, residues 1-111, tag omitted): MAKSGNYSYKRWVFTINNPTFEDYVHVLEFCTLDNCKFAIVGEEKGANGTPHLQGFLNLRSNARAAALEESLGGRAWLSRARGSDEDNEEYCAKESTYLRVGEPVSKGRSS
Protocol: (§1)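 A pool of 90-nt single-stranded DNAs with seven random bases just before the constant AC of the nick site (name = the seven bases) was cut by 3 µM recombinant His6-SUMO-tagged Rep nickase domain (300 nM DNA, 50 mM HEPES pH 8.0, 50 mM NaCl, 1 mM MnCl2, 1 h, 37 °C, three replicates). Uncut DNA was amplified and sequenced.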

Sequence | uncleaved DNA left (log2)
GAAGTTA | 0.133
GGCGGGG | 0.138
AGCGTGC | 0.208
GCCTTAG | -0.0423
GGTGCAC | 0.0284
CCCTCCC | -0.156
GAGGCGT | 0.064
TAGAGCT | 0.0598
GGCCGGG | -0.103
TTCGAGC | 0.0712
AAGGCAA | 0.0974
ACCAGTC | -0.00137
AATCATT | -0.99
AGCGAGC | -0.0406
CATAGTC | -0.0344
GGTTGTA | 0.00674
CCCTGGG | 0.0591
CATAAGA | 0.067
TACAAGT | 0.0482
GGCGAGG | 0.0453

Sequence | uncleaved DNA left (log2)
AACGTGA | -0.186
TTAGCGA | 0.0811
GTAGCAA | 0.148
TAATGCG | 0.0246
AGTAAGA | -0.0901
CGACAAA | 0.0437
ACATGCC | -0.0942
CTTCGAG | -0.0312
GATCGAT | -0.0355
CTGGTGC | -0.0504
ATACAGC | 0.0172
ATCACTC | -0.0575
AACGACC | -0.00266
GGTACCC | 0.039
AGGGCAA | 0.262
CCCGCAA | 0.00328
TGGGCTG | 0.0864
TACCAGA | 0.0054
AATCTTA | -0.132
CCACCCG | -0.107

The sequences below were run on T2, Rep nickase domain of banana bunchy top virus in the same assay as above.
T2 sequence (protein, residues 1-94, tag omitted): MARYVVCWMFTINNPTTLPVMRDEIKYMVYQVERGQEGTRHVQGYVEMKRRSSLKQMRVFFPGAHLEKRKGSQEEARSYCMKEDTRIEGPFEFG
Protocol: as §1

Sequence | uncleaved DNA left (log2)
GAAGTTA | 0.035
GGCGGGG | 0.00468
AGCGTGC | 0.041
GCCTTAG | -0.0289
GGTGCAC | 0.117
CCCTCCC | -0.216
GAGGCGT | -0.0091
TAGAGCT | -0.142
GGCCGGG | -0.0439
TTCGAGC | -0.0746
AAGGCAA | 0.127
ACCAGTC | -0.0843
AATCATT | -0.243
AGCGAGC | 0.0531
CATAGTC | -0.19
GGTTGTA | -0.0244
CCCTGGG | 0.0283
CATAAGA | 0.0831
TACAAGT | 0.0328
GGCGAGG | -0.0366

Sequence | uncleaved DNA left (log2)
AACGTGA | -0.1
TTAGCGA | -0.139
GTAGCAA | 0.181
TAATGCG | 0.0342
AGTAAGA | -0.00436
CGACAAA | 0.0356
ACATGCC | -0.0293
CTTCGAG | -0.034
GATCGAT | -0.0663
CTGGTGC | -0.118
ATACAGC | 0.0118
ATCACTC | -0.107
AACGACC | 0.111
GGTACCC | 0.0533
AGGGCAA | 0.29
CCCGCAA | 0.0722
TGGGCTG | 0.04
TACCAGA | 0.133
AATCTTA | 0.0428
CCACCCG | -0.0332

These sequences were tested on T3, Rep nickase domain of cabbage leaf curl virus in the same assay as above.
T3 sequence (protein, residues 1-116, tag omitted): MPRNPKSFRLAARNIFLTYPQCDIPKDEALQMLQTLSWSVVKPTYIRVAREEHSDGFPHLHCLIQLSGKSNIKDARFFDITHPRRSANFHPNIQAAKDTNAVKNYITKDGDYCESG
Protocol: as §1

Sequence | uncleaved DNA left (log2)
GAAGTTA | 0.274
GGCGGGG | 0.551
AGCGTGC | -0.128
GCCTTAG | -0.47
GGTGCAC | 0.681
CCCTCCC | -0.00492
GAGGCGT | 0.0975
TAGAGCT | -0.618
GGCCGGG | 0.71
TTCGAGC | 0.248
AAGGCAA | 0.224
ACCAGTC | -0.422
AATCATT | -1.43
AGCGAGC | -0.0777
CATAGTC | -0.15
GGTTGTA | 0.333
CCCTGGG | -0.415
CATAAGA | -0.403
TACAAGT | -0.148
GGCGAGG | 0.161

Sequence | uncleaved DNA left (log2)
AACGTGA | -0.178
TTAGCGA | -0.83
GTAGCAA | 0.365
TAATGCG | -0.178
AGTAAGA | 0.0148
CGACAAA | 0.0702
ACATGCC | -0.644
CTTCGAG | -0.00885
GATCGAT | 0.141
CTGGTGC | -0.469
ATACAGC | -0.338
ATCACTC | -0.14
AACGACC | -0.0389
GGTACCC | 0.49
AGGGCAA | 0.779
CCCGCAA | -0.0378
TGGGCTG | 0.378
TACCAGA | -0.0591
AATCTTA | -0.346
CCACCCG | -0.904

The sequences below were run on T4, Rep nickase domain of chickpea chlorotic dwarf virus in the same assay as above.
T4 sequence (protein, residues 1-124, tag omitted): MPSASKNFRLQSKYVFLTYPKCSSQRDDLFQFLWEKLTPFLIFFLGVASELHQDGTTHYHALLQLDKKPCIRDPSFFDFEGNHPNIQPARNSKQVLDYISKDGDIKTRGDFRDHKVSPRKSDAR
Protocol: as §1

Sequence | uncleaved DNA left (log2)
GAAGTTA | -0.158
GGCGGGG | 0.951
AGCGTGC | 0.182
GCCTTAG | -0.426
GGTGCAC | 1.64
CCCTCCC | -0.336
GAGGCGT | 0.527
TAGAGCT | -2.04
GGCCGGG | 1.59
TTCGAGC | 0.383
AAGGCAA | 0.659
ACCAGTC | -0.418
AATCATT | -2.45
AGCGAGC | 0.346
CATAGTC | -0.415
GGTTGTA | 0.79
CCCTGGG | -0.5
CATAAGA | -0.569
TACAAGT | -1.56
GGCGAGG | 0.71

Sequence | uncleaved DNA left (log2)
AACGTGA | -0.64
TTAGCGA | -0.288
GTAGCAA | 0.973
TAATGCG | 0.959
AGTAAGA | -0.0695
CGACAAA | 0.643
ACATGCC | -0.517
CTTCGAG | 0.223
GATCGAT | 0.542
CTGGTGC | -0.503
ATACAGC | -0.697
ATCACTC | -0.317
AACGACC | 0.395
GGTACCC | 1.04
AGGGCAA | 1.78
CCCGCAA | -0.295
TGGGCTG | 1.24
TACCAGA | -1.13
AATCTTA | -1.87
CCACCCG | -0.38

These sequences were tested on T5, Rep nickase domain of faba bean necrotic yellows virus in the same assay as above.
T5 sequence (protein, residues 1-98, tag omitted): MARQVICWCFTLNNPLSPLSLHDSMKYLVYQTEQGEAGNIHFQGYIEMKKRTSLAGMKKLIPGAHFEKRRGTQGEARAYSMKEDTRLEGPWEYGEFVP
Protocol: as §1

Sequence | uncleaved DNA left (log2)
GAAGTTA | 0.213
GGCGGGG | -0.0119
AGCGTGC | 0.0635
GCCTTAG | -0.0329
GGTGCAC | -0.123
CCCTCCC | -0.0973
GAGGCGT | -0.0105
TAGAGCT | 0.0284
GGCCGGG | 0.0177
TTCGAGC | -0.076
AAGGCAA | 0.0744
ACCAGTC | -0.00729
AATCATT | -0.148
AGCGAGC | 0.0761
CATAGTC | 0.0161
GGTTGTA | -0.0656
CCCTGGG | -0.0819
CATAAGA | 0.0888
TACAAGT | 0.053
GGCGAGG | 0.016

Sequence | uncleaved DNA left (log2)
AACGTGA | -0.0476
TTAGCGA | 0.0366
GTAGCAA | 0.0508
TAATGCG | 0.14
AGTAAGA | 0.028
CGACAAA | 0.0459
ACATGCC | -0.0267
CTTCGAG | 0.0602
GATCGAT | 0.0146
CTGGTGC | -0.0914
ATACAGC | 0.0374
ATCACTC | -0.129
AACGACC | -0.0187
GGTACCC | 0.0312
AGGGCAA | 0.148
CCCGCAA | 0.0601
TGGGCTG | 0.0258
TACCAGA | 0.188
AATCTTA | 0.0335
CCACCCG | -0.0938
